Measured values as given in patent US6153429A (priority 1997, dated 2000).

Tested on: T1 and C3H/10T1/2 cells
Assay: toxicity to cells in T1 / C3H/10T1/2 co-cultures
Details: at all concentrations (0.5, 1.0, 5.0 or 10.0 μM)

SMILES: Cc1ccc2cc3c(ccc4ccccc43)c3c2c1CC3 [20-methylcholanthrene]
- cells remaining on the plates (stock in tetrahydrofuran): very few cells remained on the plates
- toxicity to cells (may be due to peroxides contaminating tetrahydrofuran): very toxic to cells
